The whole screen tested about 45,000 compounds, of which about 200 (0.44%) were called active. Not shown: some 7% with an inconclusive outcome. Calls come from the whole dose curve; as a rule, active = well fitted activation curve with a large enough effect; inconclusive = small, poorly fitted or top-dose-only effect; inactive = no such curve, though single readings can be large or run the other way. This is one part of the list.
Assay: qHTS of TDP-43 Inhibitors: NCGC Sytravon Library Screen; note: 0% is about no effect; nearly all actives have a fitted effect of over 55% in size
Details: yeast TDP-43 toxicity rescue, BacTiter-Glo growth, 24 h; series mostly up to 46.1 µM; growth rescue (activation): at the top concentration
Outline: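 TDP-43-expressing yeast, pregrown in raffinose, seeded at OD600 0.02 in galactose medium with compound for 24 hr at 30 deg C. Growth read by BacTiter-Glo luminescence, so rescue of toxicity appears as activation.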

SMILES	growth rescue (activation)
COc1cc(C(=O)NCCN=C2NS(=O)(=O)c3ccccc32)cc(OC)c1OC	inactive: -6.79%
CCOC(=O)c1ccc(NC(=S)NC(=O)c2cncc(Br)c2)cc1	inactive: -20.7%
Cc1nc(Cl)c(S(N)(=O)=O)c(C)c1Cl	inactive: 17.9%
Cc1ccc(S(=O)(=O)c2cc3c(=O)n4cccc(C)c4nc3n(CC3CCCO3)c2=N)cc1C (centres undefined)	inactive: -5.56%
CCN(CC)CCNC(=O)c1ccc(Cn2c(=O)c3cccn3c3cccnc32)cc1	inactive: 2.4%
CC(C)N1CCN(C2CSCCSC2)CC1CCO (centres undefined)	inactive: -10.3%
NC(=O)c1ccsc1NC(=O)COC(=O)/C=C/c1ccccc1[N+](=O)[O-]	inactive: 0.7%
Cc1[nH]cc(Br)c(=O)c1Oc1ncc(C(F)(F)F)cc1Cl	inactive: -1.41%
COc1cc2c(cc1NC(=O)/C=C/c1cc(OC)c(OC)c(OC)c1)oc1ccccc12	inactive: 17.2%
CCc1ccc(C(=O)COC(=O)c2ccc(Cl)nc2)cc1	inactive: -5.53%
C=CCn1c(SCC(=O)NC2CCCc3ccccc32)nnc1-c1ccncc1 (centres undefined)	inactive: 10.9%
COc1ccc(CCNC(=O)CN(c2cc(OC)ccc2OC)S(=O)(=O)c2ccccc2)cc1	inactive: 1.79%
CCC(C)N=C1CC(C)(C)CC(=O)/C1=C(/O)Cc1ccccc1 (centres undefined)	inactive: 6.81%
CC(=O)OCC(=O)N1CCN(c2ccc([N+](=O)[O-])cc2)CC1	inactive: 21.2%
CC(=O)Oc1ccc2c(=O)c(Oc3ccccc3)c(C)oc2c1OC(C)=O	inactive: 1.4%
CC#CC[N+](C)(C)CCCCCC	inactive: 13.5%
COc1ccc(C)cc1NC(=O)c1sc2nc(C)nc(N3CCOCC3)c2c1C	inactive: 8.23%
CC(CNC(=O)c1ccco1)NC(=O)c1ccco1 (centres undefined)	inactive: 2.05%
COc1ccc(CCNC(=O)C2CCN(S(=O)(=O)c3cccs3)CC2)cc1OC	inactive: 6.23%
O=C(NS(=O)(=O)Oc1ccccc1F)OC[C@@H]1CCCN2CCCCC12 (some centres undefined)	inactive: -29.2%
COc1ccc(NC(=O)CCCN2C(=O)C3CC=CCC3C2=O)cc1 (centres undefined)	inactive: 11.8%
OCCCNc1nc(-c2ccccc2)c2cc(Br)ccc2n1	inactive: 13.5%
CCC1Oc2ccccc2N(CC(=O)NCC2CCCO2)C1=O (centres undefined)	inactive: 5.41%

SMILES	growth rescue (activation)
O=C(N/C(=C/c1ccc(F)cc1)C(=O)N1CCCC1)c1ccccc1	inactive: 6.97%
O=C(COc1ccccc1Cl)Nc1ccc(S(=O)(=O)N2CCOCC2)cc1	inactive: 6.55%
Cc1ccc(C(C(=O)NC2CCCC2)N(C(=O)c2csnn2)c2cccc(F)c2)o1 (centres undefined)	inactive: 1.94%
COc1cccc(Cn2cc(N)cn2)c1	inactive: 3.04%
CCOc1cc(CNn2cnnc2SCC(=O)NC(C)(C)C)ccc1OCC(=O)NC(C)(C)C	inactive: 14.1%
NC(=S)N=Nc1c(O)[nH]c2cc(F)c(F)cc12	inactive: -17.7%
CC#CC(=O)N1CCC(CCc2ccccc2)(C(=O)OCC)CC1	inactive: 13.5%
COc1cc(OC)c(OC)cc1CN1CCCC(C(=O)c2sccc2C)C1 (centres undefined)	inactive: 11.5%
CCS(=O)(=O)N1CCN(c2ccc(S(=O)(=O)N3CCOCC3)cc2)CC1	inactive: 4.2%
Cc1c(O)ccc2c(CN3CCN(C/C=C/c4ccccc4)CC3)cc(=O)oc12	inactive: 4.45%
Cc1ccc(S(=O)(=O)N(C)C)cc1NC(=O)CCCNC(=O)c1ccc(Cl)cc1	inactive: 9.45%
CS(=O)(=O)c1ccc(C(=O)N(Cc2ccccc2)c2ccccc2)cc1	inactive: -3.71%
COc1ccc2c(CC(=O)Nc3ccccc3OC)coc2c1	inactive: 13.2%
CCOc1cc(CNCC(C)C)c(Cl)cc1OCC(=O)Nc1ccccc1	inactive: 7.99%
CC(=O)Nc1cncc(-c2cccc(C(=O)NCCN(C)C)c2)n1	inactive: 2.36%
O=C(OCCCN=C1NS(=O)(=O)c2ccccc21)c1cccs1	inactive: 3.69%
O=C(O)c1ccc(Cl)c(S(=O)(=O)Nc2ccc(S(=O)(=O)Nc3cccc(Cl)c3)cc2)c1	inactive: -18%
COC(=O)c1cc(C(=O)OCC(=O)N2CCCCC2)cc([N+](=O)[O-])c1	inactive: 3.65%
CC1(C)Cc2ccccc2C2=C(C(=O)N3CCCCCC3)C(=O)C(=O)N21	inactive: -1.66%
COc1ccccc1N1CCN(C2CCN(S(=O)(=O)c3ccc(C)cc3)CC2)CC1	inactive: -26.6%
O=C(Nn1cnnc1)c1cc(-c2ccccn2)nc2ccccc12	inactive: -2.7%
O=C(NC1CCN(C(=O)Nc2ccccc2Cl)CC1)c1cccc(F)c1	inactive: 16.3%
COc1ccc(NC(=O)CCCCCn2nnc3ccccc3c2=O)cc1	inactive: -33.8%

SMILES	growth rescue (activation)
Cc1ccc(S(=O)(=O)CCC(=O)Nc2ccccc2C)cc1	inactive: 16%
O=c1oc2ccccc2n1Cc1ccccc1	inactive: 9.09%
COc1ccc(CC(=O)Nc2c3c(nn2-c2cccc(C)c2C)CS(=O)C3)cc1OC (centres undefined)	inactive: 31.2%
COc1ccc2nc(Cl)c(C#N)cc2c1	inactive: 25.1%
FC(F)(F)c1cccc(-c2nn[nH]n2)c1	inactive: -2.1%
Oc1ccc(Br)cc1/C=N/Nc1nc(N2CCCCC2)nc(N2CCOCC2)n1	inactive: -1.21%
Cc1ccc(C)c(C(=O)OCC(=O)N(C)c2ccccc2)c1	inactive: 28.7%
COc1cc2c(cc1NC(=O)c1cc(-c3ccccn3)nc3ccccc13)oc1ccccc12	inactive: 1.34%
CC1CN(S(=O)(=O)c2cccc(C(=O)NCCc3ccc(S(N)(=O)=O)cc3)c2)CC(C)O1 (centres undefined)	inactive: 0.0184%
COCCNC(=O)C1(C)CCCN(C(=O)c2cccnc2SC)C1 (centres undefined)	inactive: -0.396%
O=C(CCc1ccccc1)N1N=C(c2ccncc2)CC1(O)C(F)(F)F (centres undefined)	inactive: -7.22%
CN(C)S(=O)(=O)N1CCN(c2ccc([N+](=O)[O-])c(N3CCOCC3)c2)CC1	inactive: 7.94%
Cc1nc2ccc(N3C(=O)CCC3=O)cc2[nH]1	inactive: 10.4%
CC(C)=CCn1c2ccc(NC(=O)NCc3ccc(F)cc3)cc2c(=O)n1C	inactive: 12.4%
Cc1ccc(NC(=O)CSc2nnc(C)n2CC2CCCO2)cc1 (centres undefined)	inactive: -10.8%
CCOC(=O)C1CCN(Cc2cc(=O)oc3cc(C)c(Cl)cc23)CC1	inactive: -1.83%
CC(C)C(C)NC(=O)COc1ccc(S(=O)(=O)N2CCOCC2)cc1[N+](=O)[O-] (centres undefined)	inactive: -4.84%
CN(C)S(=O)(=O)c1cccc(N=C2SCCN2Cc2ccccc2)c1	inactive: 29.4%
O=C(CN1CCCC1)Nc1nc(-c2ccc3c(c2)CCN3C(=O)c2ccccc2F)cs1	inactive: -25.3%
COC(=O)COc1ccc2c(=O)c(-c3ccccc3)coc2c1	inactive: 9.13%
CCOC(=O)CC(NS(=O)(=O)Cc1ccccc1)c1ccc(C)cc1 (centres undefined)	inactive: 8.07%
Cn1cc(C(=O)C(=O)N2CCCCC2)c2ccccc21	inactive: 10.3%
CCCOc1ccc(-c2c(C(=O)N/N=C/c3ccc(C)cc3)nnn2-c2nonc2N)cc1	inactive: 1.93%

From PubChem BioAssay AID1347073 (National Center for Advancing Translational Sciences (NCATS), 2019)
